# Experimental data reported in PubChem BioAssay (Tox21).
# “And” between values parts separate entries of the source, which are not always exact repeats. Equal entries are not always repeated. The inconclusive results got no clear call from the source; some entries with a clear call stand among them for comparison. A potency beside an inconclusive call is a rough fit, not a confirmed value. The source made the active and inactive calls. Unless noted, calls follow the shape of the dose curve; as a rule, active = well fitted curve in the direction sought with a large enough effect in the repeat runs; inconclusive = weak or mixed curves; inactive = no such curve, though single readings can be large; an effect the other way counts as inactive or inconclusive.
# Experiments:
# [1] = qHTS assay for identifying genotoxic compounds that show differential cytotoxicity against isogenic chicken DT40 cell lines with known DNA damage response pathways - wild type cell line (AID 743012); conditions: DT40 wild type chicken cells viability, CellTiter-Glo, 40 h; activity change, negative = cytotoxicity: at 68.4 µM (top of the series) unless noted; also: nearly all actives have a fitted effect of over 60% in size; as to activity change, negative = cytotoxicity: % is scaled to controls: 0 for no effect and ±100 for the full control effect
# In short: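 Endpoint: CellTiter-Glo luminescence, 30 min RT. Cells: wild type DT40, 300/well. Exposure: compounds in DMSO, 40 h, 37 C/5% CO2, after ~0.5 h pre-incubation.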
# [2] = molecular target: Androgen receptor (Homo sapiens) (UniProt P10275); test: qHTS assay to identify small molecule antagonists of the androgen receptor (AR) signaling pathway (AID 743035; active = well fitted inhibition curve with a large enough effect in the signal ratio in the repeat runs, not every such curve was filed as active; inconclusive = weak or mixed curves, or effect the other way; inactive = no such curve, though single readings can be large or run the other way; the % refers to the signal ratio; as to activity change, negative = inhibition: % is scaled to controls: 0 for no effect and ±100 for the full control effect); conditions: HEK293 AR-UAS-bla, R1881-stimulated, beta-lactamase FRET, 16 h; activity change, negative = inhibition: at 58.5 µM (top of the series) unless noted
# In short: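 R1881 agonist challenge of a HEK293 UAS-beta-lactamase AR reporter line in the presence of compound (16 h, 37C); signal taken as FRET fluorescence after 2 h with LiveBLAzer B/G substrate at room temperature.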
# [3] = molecular target: Androgen receptor (Homo sapiens) (UniProt P10275); test: qHTS assay to identify small molecule agonists of the androgen receptor (AR) signaling pathway (AID 743036; active = well fitted activation curve with a large enough effect in the signal ratio in the repeat runs, with a control signal flat, not every such curve was filed as active; inconclusive = weak or mixed curves, or effect the other way; inactive = no such curve, though single readings can be large or run the other way; the % refers to the signal ratio; as to activation: % is scaled to controls: 0 for no effect and ±100 for the full control effect); conditions: HEK293 AR-UAS-bla GripTite, beta-lactamase FRET ratio, 16 h; activation: at 62.4 µM (top of the series) unless noted
# In short: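 AR-UAS-bla HEK293 cells, plated 4 h before dosing, were treated with compound for 16 h at 37C. beta-Lactamase reporter read after 2 h with LiveBLAzer B/G FRET substrate at room temperature.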
# [4] = qHTS assay to identify small molecule antagonists of the androgen receptor (AR) signaling pathway - cell viability counter screen (AID 743033; also: nearly all actives have a fitted effect of over 45% in size); conditions: AR-bla HEK293 viability, CellTiter-Glo luminescence, 16 h; activity change, negative = cytotoxicity: at 58.5 µM (top of the series)
# [5] = qHTS assay to identify small molecule antagonists of the androgen receptor (AR) signaling pathway using the MDA cell line - cell viability counter screen (AID 743041; also: nearly all actives have a fitted effect of over 45% in size); conditions: MDA-kb2 viability, CellTiter-Fluor, 16 h, cells co-treated with R1881 androgen agonist; viability change, negative = cytotoxic: at 70.3 µM (top of the series) unless noted
# In short: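 Viability read by CellTiter-Fluor fluorescence in the same wells as the antagonist screen, added after 15.5 h of a 16 h, 37C exposure. Human breast carcinoma MDA-kb2 AR-luc cells, compounds co-dosed with agonist R1881.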
# [6] = molecular target: Androgen receptor (Homo sapiens) (UniProt P10275); test: qHTS assay to identify small molecule antagonists of the androgen receptor (AR) signaling pathway using the MDA cell line (AID 743042; also: nearly all actives have a fitted effect of over 55% in size)
# In short: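 Antagonist mode: compounds plus R1881 agonist added to MDA-kb2 AR-luc cells, incubated 16 h at 37C. Luciferase reporter luminescence quantified, with multiplexed CellTiter-Fluor readout for cell viability.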
# [7] = molecular target: Androgen receptor (Homo sapiens) (UniProt P10275); test: qHTS assay to identify small molecule agonists of the androgen receptor (AR) signaling pathway using the MDA cell line (AID 743040; also: nearly all actives have a fitted effect of over 20% in size); conditions: MDA-kb2 AR-luc cells, MMTV luciferase, 16 h; activity change: at 70.3 µM (top of the series), stronger effect = higher value
# In short: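 Luciferase agonist assay: 16 h compound exposure at 37C without CO2 in MDA-kb2 AR-luc cells, whose MMTV promoter responds to both AR and GR. Luminescence measured after 30 min room-temperature incubation with ONE-Glo.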
# [8] = qHTS assay to identify small molecule antagonists of the thyroid receptor (TR) signaling pathway - cell viability counter screen (AID 743064); conditions: GH3.TRE-Luc viability, CellTiter-Fluor, 24 h; activity change, negative = cytotoxic: at 70.3 µM (top of the series) unless noted; also: nearly all actives have a fitted effect of over 50% in size
# In short: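 GH3.TRE-Luc rat pituitary cells dosed after 4 hr plating, co-stimulated with T3 at 1 nM final, incubated 23.5 h at 37 C. Viability measured in the same wells by CellTiter-Fluor fluorescence after 30 min further at 37 C.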
# Potency is read from the fitted curve at half-maximal effect; tags tell the direction and shape of the fitted curve or compound fluorescence and quenching.
# Chain of UniProt P10275 (P10275 whole entry, looked up): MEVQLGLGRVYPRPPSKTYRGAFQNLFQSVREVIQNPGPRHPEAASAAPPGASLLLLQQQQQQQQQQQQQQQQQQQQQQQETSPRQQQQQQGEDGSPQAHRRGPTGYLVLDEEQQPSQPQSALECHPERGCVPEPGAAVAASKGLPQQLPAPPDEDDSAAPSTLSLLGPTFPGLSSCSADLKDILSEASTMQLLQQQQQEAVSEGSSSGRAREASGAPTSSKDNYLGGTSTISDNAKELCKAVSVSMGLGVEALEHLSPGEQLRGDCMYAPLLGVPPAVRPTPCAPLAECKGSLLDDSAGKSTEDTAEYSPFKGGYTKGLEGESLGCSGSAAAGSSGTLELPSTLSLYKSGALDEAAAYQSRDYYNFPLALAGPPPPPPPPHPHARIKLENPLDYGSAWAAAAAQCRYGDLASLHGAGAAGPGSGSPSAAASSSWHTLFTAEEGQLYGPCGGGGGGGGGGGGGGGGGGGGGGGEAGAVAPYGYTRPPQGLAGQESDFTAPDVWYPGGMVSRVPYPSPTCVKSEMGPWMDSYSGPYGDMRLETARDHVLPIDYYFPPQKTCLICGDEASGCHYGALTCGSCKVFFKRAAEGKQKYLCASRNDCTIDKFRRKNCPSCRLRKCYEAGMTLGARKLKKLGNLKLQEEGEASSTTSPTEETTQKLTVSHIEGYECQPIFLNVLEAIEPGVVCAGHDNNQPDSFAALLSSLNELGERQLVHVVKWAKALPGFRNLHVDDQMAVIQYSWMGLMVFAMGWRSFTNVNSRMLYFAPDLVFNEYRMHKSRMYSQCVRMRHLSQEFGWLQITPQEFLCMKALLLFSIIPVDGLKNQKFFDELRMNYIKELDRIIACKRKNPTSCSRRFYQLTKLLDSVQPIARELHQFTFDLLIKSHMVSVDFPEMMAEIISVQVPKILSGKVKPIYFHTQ
structure (smiles),measurement,setting,value
CC(=O)Oc1ccccc1C(=O)O,Potency,[1],"inconclusive: 68.6 µM [rising, partial curve, poor fit]"
same,Potency,[2],inactive
same,Potency,[3],inactive
CCCCCCCCS(=O)C(C)Cc1ccc2c(c1)OCO2 (centres undefined),Potency,[1],"inconclusive: 69.9 µM [cytotoxic, single point]"
same,Potency,[4],"inconclusive: 50 µM [cytotoxic, partial curve, poor fit]"
same,Potency,[2],"inconclusive: 56 µM [falling, single point]"
same,Potency,[3],inactive
same,Potency,[5],"inconclusive: 78.4 µM [cytotoxic, partial curve, poor fit]"
same,Potency,[6],"inconclusive: 69.9 µM [inhibitor, single point]"
CC(COC(=O)c1ccccc1)OC(=O)c1ccccc1 (centres undefined),Potency,[1],"inconclusive: 76.9 µM [cytotoxic, partial curve, poor fit]"
same,Potency,[5],"inconclusive: 8.63 µM [rising, partial curve, poor fit]"
C=CCN1C[C@H](C(=O)N(CCCN(C)C)C(=O)NCC)C[C@@H]2c3cccc4[nH]cc(c34)C[C@H]21,Potency,[1],"inconclusive: 21.1 µM [cytotoxic, partial curve]"
same,Potency,[5],"inconclusive: 13.3 µM [cytotoxic, partial curve]"
O=c1c(-c2ccc(O)cc2)coc2cc(O)cc(O)c12,Potency,[1],"inconclusive: 3.79 µM [rising, full curve]"
same,Potency,[2],"inconclusive: 8.56 µM [rising, full curve] and inconclusive: 5.49 µM [rising, full curve]"
same,"activity change, negative = inhibition",[2],inconclusive: -33.5%
same,activation,[3],inconclusive: -16.6%
same,Potency,[7],"inconclusive: 17.2 µM [activator, partial curve, poor fit]"
same,Potency,[8],"inconclusive: 68.6 µM [cytotoxic, single point]"
O=C(/C=C/c1ccccc1)OCCCc1ccccc1,Potency,[1],inactive
same,Potency,[5],"inconclusive: 68.6 µM [rising, partial curve, poor fit]"
[Cl][In]([Cl])[Cl],Potency,[1],inactive
same,Potency,[4],"inconclusive: 27.5 µM [rising, partial curve, poor fit]"
same,Potency,[5],"inconclusive: 77 µM [cytotoxic, partial curve, poor fit]"
Oc1ccc(C(c2ccc(O)cc2)C(Cl)(Cl)Cl)cc1,Potency,[1],"inconclusive: 68.3 µM [cytotoxic, single point]"
same,Potency,[4],"inconclusive: 34.5 µM [cytotoxic, partial curve] and active: 49 µM"
same,Potency,[5],"inconclusive: 68.6 µM [cytotoxic, single point]"
same,Potency,[8],active: 60.9 µM and active: 61.1 µM
CCCCCCCC/C=C\CCCCCCCCCCCC(=O)O,Potency,[1],inactive
same,Potency,[2],"inconclusive: 11.1 µM [falling, partial curve, poor fit]"
same,Potency,[3],"inconclusive: 11.1 µM [activator, full curve, poor fit]"
same,Potency,[7],"inconclusive: 5.54 µM [activator, full curve]"
CCCCOCCOC(=O)c1ccccc1C(=O)OCCOCCCC,Potency,[1],"inconclusive: 75.3 µM [cytotoxic, single point] and inconclusive: 48.6 µM [cytotoxic, partial curve]"
same,Potency,[5],"inconclusive: 3.36 µM [rising, full curve, poor fit]"
CCCCCCCC[P+](CCCCCCCC)(CCCCCCCC)CCCCCCCC,Potency,[1],active: 5.42 µM
same,Potency,[4],active: 0.971 µM
same,Potency,[8],active: 4.3 µM
CC1COc2ccccc2N1C(=O)C(Cl)Cl (centres undefined),Potency,[1],"inconclusive: 76.8 µM [cytotoxic, single point] and inconclusive: 61.1 µM [cytotoxic, partial curve, poor fit]"
same,Potency,[4],"inconclusive: 6.9 µM [cytotoxic, partial curve, poor fit]"
same,Potency,[5],"inconclusive: 15.3 µM [cytotoxic, partial curve, poor fit] and inconclusive: 30.6 µM [cytotoxic, partial curve, poor fit]"
same,Potency,[8],active: 9.67 µM and active: 19.3 µM
CC1(C)[C@@H](O[C@H]2O[C@H](C(=O)O)[C@@H](O)[C@H](O)[C@H]2O[C@@H]2O[C@H](C(=O)O)[C@@H](O)[C@H](O)[C@H]2O)CC[C@]2(C)[C@H]3C(=O)C=C4[C@@H]5C[C@@](C)(C(=O)O)CC[C@]5(C)CC[C@@]4(C)[C@]3(C)CC[C@@H]12,Potency,[1],inactive
same,Potency,[5],"inconclusive: 0.007 µM [cytotoxic, full curve]"
same,Potency,[8],"inconclusive: 4.43 µM [rising, single point]"
